Source: PubChem BioAssay AID624417 (National Center for Advancing Translational Sciences (NCATS), 2012)
The whole screen tested about 410,000 compounds, of which about 6,400 (1.6%) were called active. The inconclusive results got no clear call from the source; some entries with a clear call stand among them for comparison. Calls follow the shape of the dose curve; as a rule, active = well fitted inhibition curve with a large enough effect; inconclusive = small, poorly fitted or top-dose-only effect; inactive = no such curve, though single readings can be large or run the other way. Potencies of inconclusive entries are doubtful fits and often do not repeat.

Biological target: Glucagon-like peptide 1 receptor (Homo sapiens) (UniProt P43220)
Assay: qHTS of GLP-1 Receptor Inverse Agonists (Inhibition Mode); also: nearly all actives have a fitted effect of over 55% in size
Conditions: HEK293 GLP-1R CRE-luciferase, luminescence, 24 h, GLP-1R form is constitutively active; activity change, negative = inhibition: at 38.3 µM (top of the series) unless noted
Outline: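 Constitutively active GLP-1R drives a cAMP-responsive luciferase in stably transfected HEK293 cells; test compounds are added after overnight (12 h) attachment and left 24 hr, and signal loss in luminescence marks inhibition.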
% is scaled to controls: 0 for no effect and ±100 for the full control effect; potency is read from the fitted curve at half-maximal effect; tags tell the direction and shape of the fitted curve.

Chain of UniProt P43220 (P43220 whole entry, looked up): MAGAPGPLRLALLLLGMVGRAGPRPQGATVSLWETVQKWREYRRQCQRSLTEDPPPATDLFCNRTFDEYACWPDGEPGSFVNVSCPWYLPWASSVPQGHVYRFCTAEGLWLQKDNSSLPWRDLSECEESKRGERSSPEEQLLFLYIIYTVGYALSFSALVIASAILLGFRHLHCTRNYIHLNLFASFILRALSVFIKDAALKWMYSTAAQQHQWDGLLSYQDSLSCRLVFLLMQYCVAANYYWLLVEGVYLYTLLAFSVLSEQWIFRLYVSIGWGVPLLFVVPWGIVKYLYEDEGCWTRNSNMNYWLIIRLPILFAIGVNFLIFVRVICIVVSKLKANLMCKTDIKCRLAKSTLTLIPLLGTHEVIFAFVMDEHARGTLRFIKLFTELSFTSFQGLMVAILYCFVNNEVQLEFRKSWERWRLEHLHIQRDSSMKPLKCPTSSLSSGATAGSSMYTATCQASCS

Potency, inconclusive:
CCOC(=O)c1c(NC(=S)N2CCCCC2)sc2c1CCN(C(=O)OCC)C2 6.31 µM [inhibitor, partial curve, poor fit]
Cc1cccc2nc(-c3ccco3)c(Nc3ccc4c(c3)OCCO4)n12 11.2 µM [inhibitor, partial curve, poor fit]
CCC(c1nnnn1Cc1ccco1)N1CCN(c2cc(Cl)ccc2C)CC1 (centres undefined) 28.2 µM [inhibitor, single point]
N#Cc1ccccc1CSc1nnc(Cc2ccccc2)o1 1.41 µM [inhibitor, full curve]
CCC(CC)C(=O)N(C)c1c(C)nc2c(OCc3ccc(OC(F)F)cc3)cccn12 8.91 µM [inhibitor, partial curve, poor fit]
CCOC(=O)c1cnc(-n2nc(C)cc2C)nc1Nc1ccc(C)cc1 1.78 µM [inhibitor, full curve, poor fit]
O=S(=O)(c1c(Cl)cc(Br)cc1Cl)N1CCN(C(=S)NC2CC2)CC1 10 µM [inhibitor, partial curve, poor fit]
COc1ccc(NC(=S)N2CCN(C(c3ccccc3)c3ccccc3)CC2)c(OC)c1 1.58 µM [inhibitor, partial curve, poor fit]
C=CCNC(=S)NNC(=O)C(CCC(C)C)CC(C)(C)O (centres undefined) 11.2 µM [inhibitor, partial curve, poor fit]
CN1CCN(C(=S)NC(=O)c2ccc(-c3ccccc3)cc2)CC1 11.2 µM [inhibitor, partial curve, poor fit]
Cc1ccc(S(=O)(=O)N2C[C@@H](C)[C@]3(C2)[C@H](O)[C@H](OC(=O)Nc2cccs2)C[C@H]2C(=O)N(c4ccccc4)C(=O)[C@H]23)cc1 7.94 µM [inhibitor, partial curve, poor fit]
CCOC(=O)Cc1csc(Nc2ccc(Cl)cc2)n1 10 µM [inhibitor, partial curve, poor fit]
COc1ccc(NS(=O)(=O)c2cc(NC(=O)[C@@H](NC(=O)c3ccccc3)C(C)C)ccc2C)cc1 14.1 µM [inhibitor, partial curve, poor fit]
CC(=O)c1ccc(NC(=O)c2sc3nc4n(c(=O)c3c2C)CCCCC4)cc1 5.01 µM [inhibitor, full curve, poor fit]
Cc1ccc2oc(C(=O)N3CCC(c4nc5ccccc5s4)CC3)c(C)c2c1 11.2 µM [inhibitor, partial curve, poor fit]
CC(C)c1ccc(OCC(=O)N(c2ccccn2)C2CCCCC2)cc1 8.91 µM [inhibitor, partial curve, poor fit]
Cc1ccc(Oc2ccc(N)cc2)cc1 28.2 µM [inhibitor, single point]
Cc1nc2ccc(NS(=O)(=O)c3c(F)cc(F)cc3Br)cc2s1 7.08 µM [inhibitor, partial curve, poor fit]
CCN(C[C@H]1N[C@@](Cc2ccccc2)(C(=O)OC)[C@H]2C(=O)N(Cc3ccccc3)C(=O)[C@@H]12)C(=O)Nc1ccc(Cl)cc1 28.2 µM [inhibitor, single point]
COc1ccc(Nc2nc(NCc3cccs3)nc3ccsc23)cc1OC 28.2 µM [inhibitor, single point]
COc1ccc2c(c1)-c1c(sn(-c3ccccc3)c1=S)C(C)(C)N2 2.51 µM [inhibitor, full curve, poor fit]
CCc1cccc(NC(=O)C2CCCN2S(=O)(=O)c2ccc3nc(-c4ccccc4)[nH]c3c2)c1 (centres undefined) 14.1 µM [inhibitor, single point]
O=C1c2cc(Cl)ccc2OC2(CCNCC2)C12CC(c1ccccc1)=NO2 (centres undefined) 11.2 µM [inhibitor, single point]
COc1ccc(N2CCN(CC(=O)Nc3nc4c(s3)CC(C)CC4)CC2)cc1 (centres undefined) 10 µM [inhibitor, partial curve, poor fit]
O=C(COc1ccc2ccccc2c1)Nc1ccc(S(=O)(=O)N2CCCCCC2)cc1 11.2 µM [inhibitor, partial curve, poor fit]
Cc1cc2c(cc1C)N(C(=O)CCl)CCN2C(=O)CCl 11.2 µM [inhibitor, single point]
CCOc1cc(CNc2ccc(N3CCOCC3)cc2)cc(Br)c1OCC 14.1 µM [inhibitor, partial curve, poor fit]
CCNC(=S)N/N=C/c1cccs1 28.2 µM [inhibitor, single point]
CC(C)COc1cc(=O)[nH]c(SCC(C)C)n1 28.2 µM [inhibitor, single point]
CCN(CC)CCOc1nnc(-c2ccc(OC)cc2)c2ccccc12 11.2 µM [inhibitor, partial curve, poor fit]
COc1ccc(/C=C2\SC(=S)N(CCC(=O)NCCCn3ccnc3)C2=O)cc1 7.08 µM [inhibitor, partial curve, poor fit]
CC1=CC(C)C2(COC(c3ccc[n+](C)c3)OC2)C(C)C1 (centres undefined) 11.2 µM [inhibitor, partial curve, poor fit]
Cc1ccc2nc(NC(=O)CCCc3nc4ccccc4s3)sc2c1 10 µM [inhibitor, single point]
O=C(Nc1ccc(F)c(F)c1)c1cc(S(=O)(=O)N2CCN(c3ccccn3)CC2)ccc1F 10 µM [inhibitor, partial curve, poor fit]
Cc1ccc(N2C(=O)c3ccccc3C2C(=O)c2ccc(C)c(C)c2O)cc1 (centres undefined) 12.6 µM [inhibitor, partial curve]
CC(C)(C)c1csc(NC(=O)CCc2ccccc2)n1 15.8 µM [inhibitor, partial curve, poor fit]
CCOc1ccc(N(CC(=O)NC2CCCCCC2)S(=O)(=O)c2c(C)[nH]c(=O)[nH]c2=O)cc1 0.501 µM [inhibitor, full curve, poor fit]
COc1ccc(C2=CC(c3c(C)nn(-c4ccccc4)c3Cl)n3nnnc3N2)cc1OC (centres undefined) 28.2 µM [inhibitor, single point]
Cc1cc(OCC(O)CN2CCOCC2)cc(C)c1Cl (centres undefined) 12.6 µM [inhibitor, single point]
COc1ccc(C#Cc2c(C=O)n(C)c3ccccc23)cc1 12.6 µM [inhibitor, single point]
O=C(Cc1c[nH]c2ccccc12)NCc1ccc(Cl)cc1 11.2 µM [inhibitor, partial curve, poor fit]
COc1ccc(OC)c(C(=O)c2ccc([N+](=O)[O-])cc2)c1 12.6 µM [inhibitor, single point]
COc1ccc(CCN2CC(C(=O)N(C)CC(=O)Nc3ccc(Cl)c(C(F)(F)F)c3)CC2=O)cc1OC (centres undefined) 11.2 µM [inhibitor, partial curve, poor fit]
N=c1n(CC(=O)c2ccc(Br)s2)c2ccccc2n1Cc1ccccc1 11.2 µM [inhibitor, single point]
COc1ccc(NC(=O)c2c(C)noc2-c2snnc2C)cc1 11.2 µM [inhibitor, partial curve]
Cc1cc2nc(-c3ccco3)c(Cc3ccccc3C(F)(F)F)n2c(C)c1Br 8.91 µM [inhibitor, partial curve, poor fit]
COCCCN(C(=S)NC(=O)c1ccc(C(C)(C)C)cc1)c1c(N)n(Cc2ccccc2)c(=O)[nH]c1=O 10 µM [inhibitor, single point]
O=C(NC(=S)NCCC1=CCCCC1)c1cncc(Br)c1 31.6 µM [inhibitor, single point]
CCOC(=O)C1=C(C)NC(=O)NC1c1ccc(-c2ccc(Cl)cc2)o1 (centres undefined) 1 µM [inhibitor, full curve, poor fit]
COC(=O)[C@]12CCCCC=C1N(CCC1=CCCCC1)C(=O)[C@H](CC(=O)NCc1ccccc1)C2 28.2 µM [inhibitor, single point]
Cc1ccccc1/C=C1\C(=O)Nc2ccc(F)cc21 12.6 µM [inhibitor, single point]

Activity change, negative = inhibition, inactive:
Cc1noc(NS(=O)(=O)c2ccc(NC(=O)c3nn(-c4ccc(F)cc4)ccc3=O)cc2)c1C 10.1%
CN(C)CC(=O)N1c2ccccc2CCc2ccc(NC(=O)c3ccc(N)cc3)cc21 0.4%
O=C(c1ccc(Br)cc1)N(Cc1ccco1)c1ccccn1 3.86%
CCOC(=O)NC1(C(F)(F)F)NC(=O)N(c2ccc(F)cc2)C1=O (centres undefined) 2.66%
Cc1ccc(C)c(S(=O)(=O)c2nnn3c2nc(NC2CCCC2)c2sccc23)c1 26.2%
Cc1ccnc(NC(=O)c2cc([N+](=O)[O-])cc([N+](=O)[O-])c2)c1 2.25%
COc1ccc(N2CCN(C(=O)c3cnc(N4CCOCC4)c4ccccc34)CC2)cc1 15.9%
CC(C)c1ccc(Nc2nc(CC(=O)O)cs2)cc1 -3.83%
